Source: article PMC4336329 (PLoS ONE, 2015)
Out of some 310,000 compounds screened, about 14,000 (4.5%) showed an effect of 50% or more. The effect is printed as a negative number. The list shows a part of the results.

target: human ether-à-go-go-related gene (hERG) potassium channel (human, UniProt Q12809); experiment: primary screen, population patch clamp on CHO cells stably expressing hERG
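Note: peak tail current of the secondary pulse compared with the same well before compound.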

Chain of human ether-à-go-go-related gene (hERG) potassium channel (Q12809 whole entry, looked up): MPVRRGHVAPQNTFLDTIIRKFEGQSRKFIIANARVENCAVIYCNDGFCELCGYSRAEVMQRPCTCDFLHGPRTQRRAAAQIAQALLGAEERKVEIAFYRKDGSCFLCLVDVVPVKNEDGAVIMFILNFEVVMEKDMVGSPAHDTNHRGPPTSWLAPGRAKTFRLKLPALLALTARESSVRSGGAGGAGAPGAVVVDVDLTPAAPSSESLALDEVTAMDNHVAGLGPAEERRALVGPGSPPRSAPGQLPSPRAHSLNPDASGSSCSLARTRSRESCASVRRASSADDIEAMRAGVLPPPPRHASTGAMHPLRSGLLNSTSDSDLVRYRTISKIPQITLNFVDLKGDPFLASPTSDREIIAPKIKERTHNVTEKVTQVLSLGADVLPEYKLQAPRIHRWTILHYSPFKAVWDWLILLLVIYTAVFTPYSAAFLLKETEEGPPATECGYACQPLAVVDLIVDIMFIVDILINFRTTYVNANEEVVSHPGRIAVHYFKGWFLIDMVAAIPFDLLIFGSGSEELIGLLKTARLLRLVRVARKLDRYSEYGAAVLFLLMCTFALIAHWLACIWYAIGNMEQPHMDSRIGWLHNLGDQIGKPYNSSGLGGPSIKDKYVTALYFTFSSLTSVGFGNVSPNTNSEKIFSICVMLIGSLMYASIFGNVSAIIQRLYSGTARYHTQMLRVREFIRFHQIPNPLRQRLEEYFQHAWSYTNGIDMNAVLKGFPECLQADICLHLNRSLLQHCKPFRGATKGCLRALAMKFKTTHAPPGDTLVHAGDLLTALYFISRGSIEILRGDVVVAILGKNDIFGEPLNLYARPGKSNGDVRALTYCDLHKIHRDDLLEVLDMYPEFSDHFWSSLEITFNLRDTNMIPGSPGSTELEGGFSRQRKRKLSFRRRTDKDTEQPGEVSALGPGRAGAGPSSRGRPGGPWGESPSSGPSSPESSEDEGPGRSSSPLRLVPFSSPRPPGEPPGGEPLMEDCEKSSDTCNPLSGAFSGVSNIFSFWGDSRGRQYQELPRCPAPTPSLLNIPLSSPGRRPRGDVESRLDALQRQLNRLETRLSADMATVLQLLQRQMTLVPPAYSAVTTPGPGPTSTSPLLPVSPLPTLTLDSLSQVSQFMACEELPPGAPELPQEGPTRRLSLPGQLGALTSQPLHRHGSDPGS

Row | SMILES | hERG current change (%, negative = inhibition) at 10uM [%]
1 | O=C(Nc1cccnc1Cl)c1cc(-c2ccc(Cl)cc2)on1 | 13.4
2 | CC(O)CNCCCCOc1ccc(OCc2ccccc2)cc1 (stereo not drawn) | -18
3 | Cc1csc(NC(=O)CSc2nc3sc(C)c(C)c3c(=O)[nH]2)n1 | 4.3
4 | O=S(=O)(c1cccs1)N1CCN(Cc2ccccc2)CC1 | -14
5 | COc1cccc(C(=O)NC(=S)Nc2ccc(N3CCCC3)cc2)c1 | 10.6
6 | CCC(=O)Nc1nnc(-c2cccs2)s1 | 24.2
7 | COc1ccccc1NC(=O)CCCc1c[nH]c2ccccc12 | 6.15
8 | COc1ccc(OCC(=O)Nc2ccc3c(c2)nc(CCn2ccccc2=O)n3C)cc1 | -10.8
9 | Cn1c(=O)c2cc(S(=O)(=O)N3CCN(c4cccc(C(F)(F)F)c4)CC3)ccc2n(C)c1=O | 8.48
10 | CNC(=S)N(CCc1c(C)[nH]c2ccccc12)Cc1cccnc1 | 11
11 | Cn1nc(OC(=O)Nc2ccc(F)cc2)cc1C(F)(F)F | -7.95
12 | O=C(O)CN(Cc1ccco1)S(=O)(=O)c1ccc(F)cc1 | 16.7
13 | Br.CCn1c(-c2ccccc2)csc1=Nc1ccc(O)cc1 | -25.5
14 | CC(=O)Nc1ccc(NC(=O)c2ccc(NC(=O)c3ccccc3)cc2)cc1 | 16.4
15 | COc1ccc(CCCC(=O)NC2CCCCC2)cc1 | 6.2
16 | CCC(COC(C)=O)Nc1nc2c([nH]1)c(=O)n(C)c(=O)n2C (stereo not drawn) | -11.4
17 | COCC(=O)Nc1ccc(F)cc1 | 18.6
18 | CCCCn1cc(SCC(=O)O)c2ccccc21 | 11.7
19 | COc1ccc(C(=O)Nc2nccs2)cc1 | 17.8
20 | CC1CCc2ccccc2N1C(=N)N(C)C.Cl (stereo not drawn) | 3.44
21 | COc1ccccc1C1C2=C(N=c3s/c(=C/c4cccc(OCC(=O)O)c4)c(=O)n31)c1ccccc1CC2 (stereo not drawn) | 28.7
22 | O=C(Nc1ccccc1C(=O)Nc1ccc(F)cc1)c1ccco1 | 2.86
23 | CCOP(=O)(OCC)/C(C#N)=C/c1cc(OC)ccc1OC | 12.7

Row | SMILES | hERG current change (%, negative = inhibition) at 10uM [%]
24 | Cc1ccc2nc(-c3cccs3)oc(=O)c2c1 | 0.723
25 | CCOC(=O)C1CCN(S(=O)(=O)c2ccc(C)c(C(=O)NC3CCCCC3)c2)CC1 | -55.8
26 | CC(C)c1nc2n[nH]c(N)c2c2c1CCC2 | 10.3
27 | Cc1ccc(C(C)C)c(OCC(O)CN2CCc3ccccc3C2)c1.Cl (stereo not drawn) | -65
28 | O=C(OCc1ccc([N+](=O)[O-])cc1)C1CC(=O)N(Cc2ccccc2Cl)C1 (stereo not drawn) | -66.4
29 | Cc1cccc(-n2ncc3c2CCCC3NC(=O)CCN2Cc3ccccc3C2=O)c1C (stereo not drawn) | 2.55
30 | CCOC(=O)C1CCCN(C(=O)c2ccc(S(=O)(=O)N3CCOCC3)cc2)C1 (stereo not drawn) | 12
31 | O=C(Nc1cccc(Oc2ccc3c(c2)C(=O)NC3=O)c1)c1ccco1 | -21.8
32 | CCOc1ccc(CN(CCCl)CCCl)cc1C(=O)OC.Cl | 7.69
33 | CN(CC(=O)Nc1ccc(Cl)cc1)C(=O)c1ccc(-n2cncn2)c([N+](=O)[O-])c1 | -70.3
34 | COc1cccc(-c2ccc(NC(=O)C3CCCN(Cc4cnc(C)n4C)C3)cc2)c1 (stereo not drawn) | -74.3
35 | CC(=O)Nc1nc2ccc(Br)cc2s1 | -1.32
36 | O=C(c1ccc(-n2cncn2)c([N+](=O)[O-])c1)N1CCN(S(=O)(=O)c2c(F)cccc2F)CC1 | -56.8
37 | COc1cccc2[nH]c3c(Cl)ncnc3c12 | -4.93
38 | O=C(NCc1nnnn1-c1ccc(F)c(F)c1)c1ccc(S(=O)(=O)N2CCOCC2)cc1 | -9.56
39 | O=C1S/C(=C\c2ccc(N3CCOCC3)o2)C(=O)N1c1ccccc1 | 13.3
40 | CCN(CC)S(=O)(=O)c1cc(C(=O)O)ccc1OC | 1.19
41 | O=C(O)c1ccccc1NCCO | 33.8
42 | c1ccc(-c2ccc(-c3csnn3)cc2)cc1 | 14.2
43 | O=C(CN1CCCN(S(=O)(=O)c2ccc(F)cc2)CC1)Nc1c(Cl)cccc1Cl | -27.1
44 | N#Cc1ccccc1Sc1ccccc1C(=O)OCc1nnc(-c2ccccc2)o1 | 10.2
45 | O=C(CSCc1ccc(Cl)cc1)N/N=C/c1ccc(OCC(=O)Nc2ccccc2)cc1 | 10.2
